Data on four molecules can be found in article PMC3411107.

Chains of the proteins cited; added tags and fusions are not shown. Lines headed by an entry give the natural chain unless they say otherwise; changes in a name come on top.
UniProt Q15042: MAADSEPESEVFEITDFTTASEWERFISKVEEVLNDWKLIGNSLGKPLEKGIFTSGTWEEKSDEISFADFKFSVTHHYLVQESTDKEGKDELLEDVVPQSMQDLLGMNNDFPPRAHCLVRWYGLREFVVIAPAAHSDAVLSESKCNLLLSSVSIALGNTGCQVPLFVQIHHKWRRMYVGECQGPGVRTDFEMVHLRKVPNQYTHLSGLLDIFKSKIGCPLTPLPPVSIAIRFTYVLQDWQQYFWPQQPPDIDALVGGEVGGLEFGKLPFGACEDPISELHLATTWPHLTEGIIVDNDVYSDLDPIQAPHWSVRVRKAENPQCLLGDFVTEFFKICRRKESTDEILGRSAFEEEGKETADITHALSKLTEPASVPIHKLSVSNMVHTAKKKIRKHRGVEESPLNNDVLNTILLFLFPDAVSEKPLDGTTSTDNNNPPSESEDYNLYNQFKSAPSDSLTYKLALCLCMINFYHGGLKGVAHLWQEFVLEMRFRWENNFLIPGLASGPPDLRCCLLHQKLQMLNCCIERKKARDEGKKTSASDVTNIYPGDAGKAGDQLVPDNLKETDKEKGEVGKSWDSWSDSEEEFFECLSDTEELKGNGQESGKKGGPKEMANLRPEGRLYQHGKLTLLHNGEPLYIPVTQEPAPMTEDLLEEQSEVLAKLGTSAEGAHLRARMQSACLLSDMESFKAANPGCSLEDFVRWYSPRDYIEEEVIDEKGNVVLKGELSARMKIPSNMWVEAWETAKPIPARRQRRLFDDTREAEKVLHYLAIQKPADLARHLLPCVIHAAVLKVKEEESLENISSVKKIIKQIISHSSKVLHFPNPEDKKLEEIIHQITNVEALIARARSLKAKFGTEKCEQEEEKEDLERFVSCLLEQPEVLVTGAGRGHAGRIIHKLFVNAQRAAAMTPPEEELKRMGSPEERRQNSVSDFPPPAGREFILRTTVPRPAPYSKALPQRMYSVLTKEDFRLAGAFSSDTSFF
UniProt Q9H2M9: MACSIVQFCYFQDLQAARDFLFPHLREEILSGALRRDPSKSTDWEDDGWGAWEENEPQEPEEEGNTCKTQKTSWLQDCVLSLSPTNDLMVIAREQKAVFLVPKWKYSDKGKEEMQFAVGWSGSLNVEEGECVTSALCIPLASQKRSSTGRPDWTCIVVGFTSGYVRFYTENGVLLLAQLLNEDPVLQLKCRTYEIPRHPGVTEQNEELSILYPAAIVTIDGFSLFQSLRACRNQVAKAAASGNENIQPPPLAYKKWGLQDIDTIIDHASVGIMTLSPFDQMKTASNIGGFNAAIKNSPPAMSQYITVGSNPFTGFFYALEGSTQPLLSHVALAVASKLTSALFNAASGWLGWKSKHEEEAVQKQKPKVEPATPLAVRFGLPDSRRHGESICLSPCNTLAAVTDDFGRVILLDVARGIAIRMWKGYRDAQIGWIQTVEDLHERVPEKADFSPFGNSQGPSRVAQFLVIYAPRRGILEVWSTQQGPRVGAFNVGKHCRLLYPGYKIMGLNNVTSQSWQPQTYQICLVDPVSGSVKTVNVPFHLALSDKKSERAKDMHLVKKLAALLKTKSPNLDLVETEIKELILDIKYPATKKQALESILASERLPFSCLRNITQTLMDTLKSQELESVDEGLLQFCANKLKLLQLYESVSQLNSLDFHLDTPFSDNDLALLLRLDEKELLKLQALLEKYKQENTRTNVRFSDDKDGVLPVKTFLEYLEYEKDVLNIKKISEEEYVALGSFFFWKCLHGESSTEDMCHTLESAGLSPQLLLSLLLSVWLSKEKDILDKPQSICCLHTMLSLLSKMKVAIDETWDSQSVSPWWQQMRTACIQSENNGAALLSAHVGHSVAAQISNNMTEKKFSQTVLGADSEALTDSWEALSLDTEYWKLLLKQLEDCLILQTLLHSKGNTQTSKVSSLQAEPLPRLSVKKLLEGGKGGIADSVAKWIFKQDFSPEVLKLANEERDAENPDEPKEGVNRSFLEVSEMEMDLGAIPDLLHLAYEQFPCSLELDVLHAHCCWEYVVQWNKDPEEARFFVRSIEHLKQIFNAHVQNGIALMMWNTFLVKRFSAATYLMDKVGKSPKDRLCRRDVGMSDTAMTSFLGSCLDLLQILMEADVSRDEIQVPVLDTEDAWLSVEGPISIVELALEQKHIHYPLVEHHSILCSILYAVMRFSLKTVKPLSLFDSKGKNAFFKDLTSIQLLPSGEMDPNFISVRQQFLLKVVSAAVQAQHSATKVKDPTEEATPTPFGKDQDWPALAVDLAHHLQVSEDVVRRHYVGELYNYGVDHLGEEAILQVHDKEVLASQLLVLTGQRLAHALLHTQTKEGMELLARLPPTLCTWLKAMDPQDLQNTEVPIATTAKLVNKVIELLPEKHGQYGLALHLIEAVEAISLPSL

Assay [1] has as its target T1, REEP4-GFP with Asp in the place of Ser152 (human) (UniProt Q9H6H4).
T1 sequence: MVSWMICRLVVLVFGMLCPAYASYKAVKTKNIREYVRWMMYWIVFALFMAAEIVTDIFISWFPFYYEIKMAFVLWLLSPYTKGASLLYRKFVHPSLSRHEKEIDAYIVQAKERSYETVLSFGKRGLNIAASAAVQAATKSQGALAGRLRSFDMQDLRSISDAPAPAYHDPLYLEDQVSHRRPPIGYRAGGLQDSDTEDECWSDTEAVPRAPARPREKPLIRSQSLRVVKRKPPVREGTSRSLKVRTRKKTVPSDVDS
Description: co-IP; REEP-GFP proteins isolated from lysates (2.5 mg) of transfected HEK293 cells with GFP-Trap agarose (anti-GFP IP); co-purified endogenous RAB3GAP1, RAB3GAP2 and 14-3-3 detected by immunoblotting. On the technique in general: A western blot detects proteins with antibodies after separation by electrophoresis.

Assay [2] addresses T2, REEP4-GFP (wild-type) (human) (UniProt Q9H6H4).
T2 sequence (chain, phosphoserine at 152; phosphoserine at 224 in phorbol ester-stimulated cells): T1 sequence with D152S
The assay is described as above.

Another assay has as its target T3, REEP4-S152A-GFP (human) (UniProt Q9H6H4).
T3 sequence: T1 sequence with D152A
The assay is described as above.

Assay [3] deals with T4, Ser224Ala-substituted REEP4 (REEP4-GFP) (human) (UniProt Q9H6H4).
T4 sequence: T1 sequence with D152S, S224A
The assay is described as above.

Assay [4] addresses T5, REEP4-GFP with Glu in the place of Ser152 (human) (UniProt Q9H6H4).
T5 sequence: T1 sequence with D152E
The description is as above.

Assay [5] concerns the target RAB3GAP1–RAB3GAP2 heterodimer (human (endogenous in HEK293)) (UniProt Q15042+Q9H2M9). Description: co-IP; endogenous RAB3GAP1 immunoprecipitated from HEK293 cells transfected to express wild-type or mutant REEP4-GFP; immunoprecipitates blotted; control with pre-immune antibodies.

Residue numbers refer to the chain shown, from its start. Names and notes keep the numbering of the source. No constants are given. Whether binding was seen depends on the method and setting. In cells and extracts the contact can be indirect. Some entries that bind do so weakly or less than the wild type. Tags and fused reporters may be left off the sequences shown.

With “RAB3GAP1–RAB3GAP2 heterodimer (from UniProt Q15042 1-981; Q9H2M9 1-1393) (complex)”, the binding result is recorded as “binds” in assay [1]; “binds” in assay [2]; “no binding” with REEP4-S152A-GFP (human); “binds” in assay [3]; “binds” in assay [4].

B1: REEP4-GFP (wild-type) (protein, UniProt Q9H6H4 1-257)
chain: T1 sequence with D152S
modifications: phosphoserine at 152; phosphoserine at 224 in phorbol ester-stimulated cells
On to B1, for which the binding entry in assay [5] is reported as “binds”.

B2: REEP4-S152A-GFP (protein, UniProt Q9H6H4 1-257)
chain: T1 sequence with D152A
B2: the binding result in assay [5] is “no binding”.

B3: Ser224Ala-substituted REEP4 (REEP4-GFP) (protein, UniProt Q9H6H4 1-257)
chain: T1 sequence with D152S, S224A
Turning to B3, the binding entry in assay [5] was “binds”.
